Test results reported in US9023789B2, “Amylin analogs and pharmaceutical compositions thereof” (Novo Nordisk A/S, priority 2012, dated 2015).
At least one read-out could not be matched to a standard name with certainty. Numbered stars: 1 amine (or outer) side, 2 acyl side, 3 side chain; on linkers, the order of the positions; unused ones are H or OH. Bridge positions count the residues as written; N and C are the ends. Side chains are listed from the residue outwards. Peptide text beside a SMILES is read from it. * marks the point of attachment. C20 diacid = O=C(O)CCCCCCCCCCCCCCCCCCC(=O)*; γGlu = O=C(O)[C@H](CCC(=O)[*:2])N[*:1]

Assay: ASSAY (III) ThT fibrillation assay for physical stability
Type: physicochemical
Outline: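 Formulations with 1 μM ThT, pH adjusted as required, incubated at 37 °C with 960 rpm orbital shaking; fluorescence (ex 444/em 485 nm) read every 20 min. Fibrillation reported as mean ThT fluorescence ± SD of 4–8 replicates at time points; polypeptide concentration measured by reverse-phase HPLC before and after, post-centrifugation.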

Compound | ThT pH 4.0 recovery (%)
CC[C@H](C)[C@H](NC(=O)[C@H](C)NC(=O)CNC(=O)[C@H](Cc1ccccc1)NC(=O)[C@H](CC(N)=O)NC(=O)[C@@H]1CCCN1C(=O)[C@H](CO)NC(=O)[C@H](CO)NC(=O)[C@H](Cc1c[nH]cn1)NC(=O)[C@H](CCCNC(=N)N)NC(=O)[C@H](CC(C)C)NC(=O)[C@H](Cc1ccccc1)NC(=O)[C@H](CC(N)=O)NC(=O)[C@H](C)NC(=O)[C@H](CC(C)C)NC(=O)[C@H](CCCNC(=N)N)NC(=O)[C@H](CCC(N)=O)NC(=O)[C@@H](NC(=O)[C@H](C)NC(=O)[C@@H]1CSSC[C@H](NC(=O)[C@H](CCCNC(=N)N)NC(=O)CNC(=O)CC[C@H](NC(=O)CCCCCCCCCCCCCCCCCCC(=O)O)C(=O)O)C(=O)N[C@@H](CC(N)=O)C(=O)N[C@@H]([C@@H](C)O)C(=O)N[C@@H](C)C(=O)N[C@@H]([C@@H](C)O)C(=O)N1)[C@@H](C)O)C(=O)N1CCC[C@H]1C(=O)N[C@@H](CO)C(=O)N[C@@H](CO)C(=O)N[C@H](C(=O)N[C@@H](CC(N)=O)C(=O)N[C@H](C(=O)NCC(=O)N[C@@H](CO)C(=O)N[C@@H](CC(N)=O)C(=O)N[C@H](C(=O)N[C@@H](Cc1ccc(O)cc1)C(N)=O)[C@@H](C)O)C(C)C)[C@@H](C)O [Example 46] ({C20 diacid-γGlu}-GRCNTATCATQRLANFLRHSSPNFGAIPSSTNVGSNTY-NH2; disulfide 3-8 (inferred)) | 0
CC[C@H](C)[C@H](NC(=O)[C@H](C)NC(=O)CNC(=O)[C@H](Cc1ccccc1)NC(=O)[C@H](CC(N)=O)NC(=O)[C@@H]1CCCN1C(=O)[C@H](CO)NC(=O)[C@H](CO)NC(=O)[C@H](Cc1c[nH]cn1)NC(=O)[C@H](CCCNC(=N)N)NC(=O)[C@H](CC(C)C)NC(=O)[C@H](Cc1ccccc1)NC(=O)[C@H](CC(N)=O)NC(=O)[C@H](C)NC(=O)[C@H](CC(C)C)NC(=O)[C@H](CCCNC(=N)N)NC(=O)[C@H](CCC(N)=O)NC(=O)[C@@H](NC(=O)[C@H](C)NC(=O)[C@@H]1CSSC[C@H](NC(=O)[C@H](CCCNC(=N)N)NC(=O)CNC(=O)CC[C@H](NC(=O)CCCCCCCCCCCCCCCCCCC(=O)O)C(=O)O)C(=O)N[C@@H](CC(N)=O)C(=O)N[C@@H]([C@@H](C)O)C(=O)N[C@@H](C)C(=O)N[C@@H]([C@@H](C)O)C(=O)N1)[C@@H](C)O)C(=O)N1CCC[C@H]1C(=O)N[C@@H](CO)C(=O)N[C@@H](CO)C(=O)N[C@H](C(=O)N[C@@H](CC(N)=O)C(=O)N[C@H](C(=O)NCC(=O)N[C@@H](CO)C(=O)N[C@@H](Cc1c[nH]cn1)C(=O)N[C@H](C(=O)N[C@@H](Cc1ccc(O)cc1)C(N)=O)[C@@H](C)O)C(C)C)[C@@H](C)O [Example 47] ({C20 diacid-γGlu}-GRCNTATCATQRLANFLRHSSPNFGAIPSSTNVGSHTY-NH2; disulfide 3-8) | 84
CC[C@H](C)[C@H](NC(=O)[C@H](C)NC(=O)CNC(=O)[C@H](Cc1ccccc1)NC(=O)[C@H](CC(N)=O)NC(=O)[C@@H]1CCCN1C(=O)[C@H](CO)NC(=O)[C@H](CO)NC(=O)[C@H](Cc1c[nH]cn1)NC(=O)[C@H](CCCNC(=N)N)NC(=O)[C@H](CC(C)C)NC(=O)[C@H](Cc1ccccc1)NC(=O)[C@H](CC(N)=O)NC(=O)[C@H](C)NC(=O)[C@H](CC(C)C)NC(=O)[C@H](CCCNC(=N)N)NC(=O)[C@H](CCC(N)=O)NC(=O)[C@@H](NC(=O)[C@H](C)NC(=O)[C@@H]1CSSC[C@H](NC(=O)[C@@H](N)CCCCNC(=O)CC[C@H](NC(=O)CCCCCCCCCCCCCCCCCCC(=O)O)C(=O)O)C(=O)N[C@@H](CC(N)=O)C(=O)N[C@@H]([C@@H](C)O)C(=O)N[C@@H](C)C(=O)N[C@@H]([C@@H](C)O)C(=O)N1)[C@@H](C)O)C(=O)N1CCC[C@H]1C(=O)N[C@@H](CO)C(=O)N[C@@H](CO)C(=O)N[C@H](C(=O)N[C@@H](CC(N)=O)C(=O)N[C@H](C(=O)NCC(=O)N[C@@H](CO)C(=O)N[C@@H](CC(N)=O)C(=O)N[C@H](C(=O)N[C@@H](Cc1ccc(O)cc1)C(N)=O)[C@@H](C)O)C(C)C)[C@@H](C)O [Example 48] | 1
CC[C@H](C)[C@H](NC(=O)[C@H](C)NC(=O)CNC(=O)[C@H](Cc1ccccc1)NC(=O)[C@H](CC(N)=O)NC(=O)[C@@H]1CCCN1C(=O)[C@H](CO)NC(=O)[C@H](CO)NC(=O)[C@H](Cc1c[nH]cn1)NC(=O)[C@H](CCCNC(=N)N)NC(=O)[C@H](CC(C)C)NC(=O)[C@H](Cc1ccccc1)NC(=O)[C@H](CC(N)=O)NC(=O)[C@H](C)NC(=O)[C@H](CC(C)C)NC(=O)[C@H](CCCNC(=N)N)NC(=O)[C@H](CCC(N)=O)NC(=O)[C@@H](NC(=O)[C@H](C)NC(=O)[C@@H]1CSSC[C@H](NC(=O)[C@@H](N)CCCCNC(=O)COCCOCCNC(=O)CC[C@H](NC(=O)CCCCCCCCCCCCCCCCCCC(=O)O)C(=O)O)C(=O)N[C@@H](CC(N)=O)C(=O)N[C@@H]([C@@H](C)O)C(=O)N[C@@H](C)C(=O)N[C@@H]([C@@H](C)O)C(=O)N1)[C@@H](C)O)C(=O)N1CCC[C@H]1C(=O)N[C@@H](CO)C(=O)N[C@@H](CO)C(=O)N[C@H](C(=O)N1CCC[C@H]1C(=O)N[C@H](C(=O)NCC(=O)N[C@@H](CO)C(=O)N[C@@H](CC(N)=O)C(=O)N[C@H](C(=O)N[C@@H](Cc1ccc(O)cc1)C(N)=O)[C@@H](C)O)C(C)C)[C@@H](C)O [Example 49] | 5
CC[C@H](C)[C@H](NC(=O)[C@H](C)NC(=O)CNC(=O)[C@H](Cc1ccccc1)NC(=O)[C@H](CC(N)=O)NC(=O)[C@@H]1CCCN1C(=O)[C@H](CO)NC(=O)[C@H](CO)NC(=O)[C@H](Cc1c[nH]cn1)NC(=O)[C@H](CCCNC(=N)N)NC(=O)[C@H](CC(C)C)NC(=O)[C@H](Cc1ccccc1)NC(=O)[C@H](CC(N)=O)NC(=O)[C@H](C)NC(=O)[C@H](CC(C)C)NC(=O)[C@H](CCCNC(=N)N)NC(=O)[C@H](CCC(N)=O)NC(=O)[C@@H](NC(=O)[C@H](C)NC(=O)[C@@H]1CSSC[C@H](NC(=O)[C@@H](N)CCCCNC(=O)COCCOCCNC(=O)CC[C@H](NC(=O)CCCCCCCCCCCCCCCCCCC(=O)O)C(=O)O)C(=O)N[C@@H](CC(N)=O)C(=O)N[C@@H]([C@@H](C)O)C(=O)N[C@@H](C)C(=O)N[C@@H]([C@@H](C)O)C(=O)N1)[C@@H](C)O)C(=O)N1CCC[C@H]1C(=O)N[C@@H](CO)C(=O)N[C@@H](CO)C(=O)N[C@H](C(=O)N[C@@H](CC(N)=O)C(=O)N[C@H](C(=O)NCC(=O)N1CCC[C@H]1C(=O)N[C@@H](CC(N)=O)C(=O)N[C@H](C(=O)N[C@@H](Cc1ccc(O)cc1)C(N)=O)[C@@H](C)O)C(C)C)[C@@H](C)O [Example 50] | 8
CC[C@H](C)[C@H](NC(=O)[C@H](C)NC(=O)CNC(=O)[C@H](Cc1ccccc1)NC(=O)[C@H](CC(N)=O)NC(=O)[C@@H]1CCCN1C(=O)[C@H](CO)NC(=O)[C@H](CO)NC(=O)[C@H](Cc1c[nH]cn1)NC(=O)[C@H](CCCNC(=N)N)NC(=O)[C@H](CC(C)C)NC(=O)[C@H](Cc1ccccc1)NC(=O)[C@H](CCC(=O)O)NC(=O)[C@H](C)NC(=O)[C@H](CC(C)C)NC(=O)[C@H](CCCNC(=N)N)NC(=O)[C@H](CCC(N)=O)NC(=O)[C@@H](NC(=O)[C@H](C)NC(=O)[C@@H]1CSSC[C@H](NC(=O)[C@@H](N)CCCCNC(=O)CC[C@H](NC(=O)CCCCCCCCCCCCCCCCCCC(=O)O)C(=O)O)C(=O)N[C@@H](CC(N)=O)C(=O)N[C@@H]([C@@H](C)O)C(=O)N[C@@H](C)C(=O)N[C@@H]([C@@H](C)O)C(=O)N1)[C@@H](C)O)C(=O)N1CCC[C@H]1C(=O)N[C@@H](CO)C(=O)N[C@@H](CO)C(=O)N[C@H](C(=O)N[C@@H](CC(N)=O)C(=O)N[C@H](C(=O)NCC(=O)N[C@@H](CO)C(=O)N[C@@H](CCCNC(=N)N)C(=O)N[C@H](C(=O)N[C@@H](Cc1ccc(O)cc1)C(N)=O)[C@@H](C)O)C(C)C)[C@@H](C)O [Example 51] (H-K([γGlu-C20 diacid])CNTATCATQRLAEFLRHSSPNFGAIPSSTNVGSRTY-NH2; disulfide 2-7 (inferred); N-terminus assumed) | 91
CC[C@H](C)[C@H](NC(=O)[C@H](C)NC(=O)CNC(=O)[C@H](Cc1ccccc1)NC(=O)[C@H](CC(N)=O)NC(=O)[C@@H]1CCCN1C(=O)[C@H](CO)NC(=O)[C@H](CO)NC(=O)[C@H](Cc1c[nH]cn1)NC(=O)[C@H](CCCNC(=N)N)NC(=O)[C@H](CC(C)C)NC(=O)[C@H](Cc1ccccc1)NC(=O)[C@H](CC(=O)O)NC(=O)[C@H](C)NC(=O)[C@H](CC(C)C)NC(=O)[C@H](CCCNC(=N)N)NC(=O)[C@H](CCC(N)=O)NC(=O)[C@@H](NC(=O)[C@H](C)NC(=O)[C@@H]1CSSC[C@H](NC(=O)[C@@H](N)CCCCNC(=O)CC[C@H](NC(=O)CC[C@H](NC(=O)CCCCCCCCCCCCCCCCCCC(=O)O)C(=O)O)C(=O)O)C(=O)N[C@@H](CC(N)=O)C(=O)N[C@@H]([C@@H](C)O)C(=O)N[C@@H](C)C(=O)N[C@@H]([C@@H](C)O)C(=O)N1)[C@@H](C)O)C(=O)N1CCC[C@H]1C(=O)N[C@@H](CO)C(=O)N[C@@H](CO)C(=O)N[C@H](C(=O)N[C@@H](CC(N)=O)C(=O)N[C@H](C(=O)NCC(=O)N[C@@H](CO)C(=O)N[C@@H](CCCNC(=N)N)C(=O)N[C@H](C(=O)N[C@@H](Cc1ccc(O)cc1)C(N)=O)[C@@H](C)O)C(C)C)[C@@H](C)O [Example 52, N-ε-1-{(S)-4-carboxy-4-[(S)-4-carboxy-4-(19-carboxynonadecanoylamino)butyrylamino]butyryl}-[Asp14,Arg17,Pro21,Pro27,Arg35]-human amylin] | 98
